Test results published in article PMC4336329 (PLoS ONE, 2015).
Screen size: about 310,000 compounds; about 14,000 (4.5%) showed an effect of 50% or more. Effects have a minus sign here. Some of the results follow.

Biological target: human ether-à-go-go-related gene (hERG) potassium channel (human, UniProt Q12809)
Assay: primary screen, population patch clamp on CHO cells stably expressing hERG
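Note: peak tail current of the secondary pulse compared with the same well before compound.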

Sequence of human ether-à-go-go-related gene (hERG) potassium channel (Q12809 whole entry, looked up): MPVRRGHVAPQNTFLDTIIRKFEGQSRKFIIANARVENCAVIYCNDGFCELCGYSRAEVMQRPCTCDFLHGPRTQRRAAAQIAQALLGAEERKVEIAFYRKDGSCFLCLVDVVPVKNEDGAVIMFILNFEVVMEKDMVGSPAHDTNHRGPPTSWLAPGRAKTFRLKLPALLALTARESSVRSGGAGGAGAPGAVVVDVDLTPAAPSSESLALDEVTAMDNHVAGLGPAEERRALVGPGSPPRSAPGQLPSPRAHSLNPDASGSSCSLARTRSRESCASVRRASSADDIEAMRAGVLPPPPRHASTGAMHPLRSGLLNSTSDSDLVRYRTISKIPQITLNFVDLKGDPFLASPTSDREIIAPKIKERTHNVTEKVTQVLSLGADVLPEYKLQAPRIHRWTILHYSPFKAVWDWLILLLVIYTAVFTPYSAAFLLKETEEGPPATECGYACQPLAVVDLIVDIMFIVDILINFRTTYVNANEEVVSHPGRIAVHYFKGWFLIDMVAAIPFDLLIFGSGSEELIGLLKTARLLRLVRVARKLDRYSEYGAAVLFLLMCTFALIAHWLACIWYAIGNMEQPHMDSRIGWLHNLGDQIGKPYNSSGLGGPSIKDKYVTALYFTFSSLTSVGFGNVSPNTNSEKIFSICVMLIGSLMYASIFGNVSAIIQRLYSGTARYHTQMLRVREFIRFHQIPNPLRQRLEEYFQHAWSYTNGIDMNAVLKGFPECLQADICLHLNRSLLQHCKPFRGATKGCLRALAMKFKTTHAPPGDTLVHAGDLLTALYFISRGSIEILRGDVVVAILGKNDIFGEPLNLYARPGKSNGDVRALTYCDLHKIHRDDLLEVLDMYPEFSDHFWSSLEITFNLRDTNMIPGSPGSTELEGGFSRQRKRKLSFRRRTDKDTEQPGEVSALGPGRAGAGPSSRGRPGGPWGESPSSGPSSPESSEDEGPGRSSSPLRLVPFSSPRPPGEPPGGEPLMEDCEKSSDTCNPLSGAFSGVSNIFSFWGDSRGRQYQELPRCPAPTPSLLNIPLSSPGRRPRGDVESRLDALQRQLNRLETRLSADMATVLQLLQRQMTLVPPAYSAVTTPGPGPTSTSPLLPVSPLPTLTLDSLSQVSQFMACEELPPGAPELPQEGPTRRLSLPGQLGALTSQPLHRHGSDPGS

Row | SMILES | hERG current change (%, negative = inhibition) at 10uM [%]
1 | CC1CCCC/C1=N\NC(=S)NCCc1ccccc1 (centres unmarked) | -4.34
2 | COC(=O)c1sccc1NC(=O)Cc1ccc(Br)cc1 | 4.61
3 | COc1cc2c(cc1OC)CN(Cc1ccc(C)cc1)CC2 | -37.1
4 | N#Cc1cccc(NC(=O)C2CCCN(C(=O)c3ccc(Cl)cc3)C2)c1 (centres unmarked) | -36.2
5 | CCC(=O)NCCc1nc2cc(NC(=O)c3ccc(Cl)cc3)ccc2n1C | -18.1
6 | CCCCn1c(N)c(N(Cc2ccccc2OC)C(=O)CSCC(=O)Nc2cccc(C)c2)c(=O)[nH]c1=O | -7.33
7 | CS(=O)(=O)C1=C(O)C(=O)N(c2ccccc2)C1c1ccccc1 (centres unmarked) | 8.13
8 | O=C(NCC1COCCO1)C1CCN(S(=O)(=O)c2ccccc2)CC1 (centres unmarked) | -7.05
9 | O=C(c1csc2c1CCCC2)N1CCN(c2cccc(C(F)(F)F)c2)CC1 | -1.76
10 | CCC(=O)N1CCCc2cc(S(=O)(=O)N3CCN(c4ncccn4)CC3)ccc21 | 0.105
11 | CCn1c(SCC(=O)NC2CCCCC2)nnc1-c1cc2cccc(OC)c2o1 | -26
12 | COc1cc(NC(=O)c2cccs2)cc(OC)c1 | -3.13
13 | Cn1c(=O)n(C)c2cc(S(=O)(=O)Nc3cc(Cl)ccc3O)ccc21 | -6.04
14 | CCc1[nH]nc(C(=O)N2CCCC(C(=O)c3cccc(OC(C)C)c3)C2)c1C (centres unmarked) | 0.863
15 | COc1ccc(NC(=O)c2cc(-c3ccc(C)o3)nc3ccccc23)c(OC)c1 | 14.9
16 | Cn1c(NC(=O)c2cccs2)cc(=O)n(C)c1=O | 0.34
17 | O=C(Cn1cc(C(F)(F)F)cc(Cl)c1=O)NCc1ccc(F)cc1 | 11.2
18 | CCC1(c2ccc(F)cc2)NC(=O)N(CC(=O)N(C)C2CCS(=O)(=O)C2)C1=O (centres unmarked) | 1.62
19 | CC1CCC(NC(=O)C2CCC(CNS(=O)(=O)c3cccc4cccnc34)CC2)CC1 (centres unmarked) | 19.1
20 | COc1ccccc1CNS(=O)(=O)N(C)C | 10.5
21 | Cn1c(NCCO)nc2c1c(=O)n(Cc1cccc(Cl)c1)c(=O)n2C | 10.8
22 | Cc1ccccc1C(=O)NC(CC(C)C)C(=O)OCc1cc(=O)n2cc(Br)ccc2n1 (centres unmarked) | -27.2
23 | Cn1c(=O)c2c(ncn2CCN(CCO)Cc2ccccc2)n(C)c1=O | -2.06

Row | SMILES | hERG current change (%, negative = inhibition) at 10uM [%]
24 | CC(C)OC(=O)C1C(=O)CC(C)(O)C(C(=O)OC(C)C)C1c1ccccc1 (centres unmarked) | 4.6
25 | COc1ccc(Cl)cc1NC(=O)Nc1ccc(Br)cn1 | 2.48
26 | O=C(Oc1ccc2c(=O)c(Oc3ccc4ccccc4c3)coc2c1)c1cccnc1 | -5.08
27 | NP(=O)(OCCCc1ccccc1)Oc1ccc(Cl)cc1 (centres unmarked) | -11.1
28 | CCN(CC)S(=O)(=O)c1ccc(Oc2ccccc2)c(N)c1 | -36.9
29 | O=C(CC1S/C(=N/N=C/c2cccnc2)NC1=O)Nc1ccccc1 (centres unmarked) | 8.31
30 | Cn1c(NCC(O)c2ccccc2)nc2c1c(=O)n(Cc1ccc(Cl)cc1)c(=O)n2C (centres unmarked) | -10.7
31 | CCOc1ccc2nc(NC(=O)C3(C)CC3(Br)Br)sc2c1 (centres unmarked) | 0.3
32 | CCn1c(COc2ccccc2)nnc1SCc1ccc(C#N)cc1 | -54.1
33 | Cc1nc2ccc(S(=O)(=O)N(C)CC(=O)N3CCc4ccccc43)cc2s1 | -42.5
34 | COc1ccc(NC(=O)c2cc(-c3ccccc3)oc2C)cc1 | 2.65
35 | CC(NS(=O)(=O)c1ccc(F)cc1)C(c1cccs1)N1CCN(C)CC1 (centres unmarked) | 0.48
36 | CC1CCCCN1CCCNC(=O)CCCN1C(=O)c2cccnc2Sc2ccccc21 (centres unmarked) | 13.9
37 | COc1cc(-c2nc(S(=O)(=O)c3ccc(C)cc3)c(N(C)C)o2)cc(OC)c1OC | -9.21
38 | CN1CCN(C(=O)c2c(O)c3cccc4c3n(c2=O)CCC4)CC1.Cl | 6.48
39 | O=C(O)CCn1c(O)c(C=C2N=c3ccccc3=N2)sc1=S | 14.6
40 | CC1Sc2ccc(S(=O)(=O)N3CCC(C(=O)NCCc4ccccc4)CC3)cc2NC1=O (centres unmarked) | -16.5
41 | COc1cc2c(cc1OC)C(c1ccccc1)N(C(=O)c1ccccc1F)CC2 (centres unmarked) | -25.9
42 | Cc1c(CC(Cl)(Cl)Cl)c2c(n1O)CC(C)(C)CC2=O | 14.9
43 | Cc1cc(C)n2nc(SCC(=O)Nc3c(C)nn(-c4ccccc4)c3C)nc2n1 | 4.43
44 | Cc1c(-c2nc(-c3ccncc3)no2)cccc1[N+](=O)[O-] | 15.4
45 | CC(CN1CCOCC1)OC(=O)c1ccc2c(c1)OCCO2.Cl (centres unmarked) | 0.732
46 | O=C(NCCCn1ccnc1)c1c(F)cccc1F | 15.4

Row | SMILES | hERG current change (%, negative = inhibition) at 10uM [%]
47 | Cc1cccc(N(Cc2ccccc2)C(=O)c2cc(S(=O)(=O)N3CCOCC3)ccc2F)c1 | -5.69
48 | CS(=O)(=O)N1CCN(C(=O)C(Sc2ccccc2)c2ccccc2)CC1 (centres unmarked) | -20
49 | COc1ccc(N2CC(O)=C(c3nc4ccccc4s3)C2=N)cc1 | 2.56
50 | CC1(C)CC(=O)c2c(O)cc(OCc3ccc(Br)cc3)cc2O1 | 15.7
51 | Cc1ccc(NC(=O)CCNS(=O)(=O)c2ccc3[nH]c(=O)oc3c2)c(Cl)c1 | 4.51
52 | COc1cccc(NC(=O)C2C3CC4OC(=O)C2C4C3)c1 (centres unmarked) | 20.4
53 | C=CCNC(=O)c1c(CS(=O)(=O)c2ccccc2)noc1C(=O)NCc1ccccc1 | -2.89
54 | O=C(CSc1nc(=O)n2ccccc2n1)Nc1ccc2c(c1)OCO2 | -8.33
55 | COC(=O)c1ccccc1NC(=O)CSc1nnc(-c2ccoc2C)n1C | -27.5
56 | COc1ccc(/C=C(\C)c2nc(C)c(-c3ccccc3)c(=O)[nH]2)cc1 | 21.7
57 | COc1ccc(Cl)cc1C(=O)Nc1ccccc1N1CCN(C)CC1 | -79.3
58 | CC(NC(=O)c1cccc(N(C)C)c1)c1ccc(-n2ccnc2)cc1 (centres unmarked) | -68.3
59 | Cc1nonc1-c1csc(N)n1 | 18.5
60 | O=C(CSc1nc2ccccc2c(=O)n1-c1ccccc1)NCc1ccco1 | -15.1
61 | CN1CCN(c2ccc(NC(=O)c3sc4ccccc4c3Cl)cc2)CC1 | -0.959
62 | O=S(=O)(/C=C/c1ccccc1)NC1CCCCCCC1 | -4.53
63 | CCCC12CN3CCN(CC(C3)/C1=N\NC(=O)Nc1ccccc1)C2 | -5.84
64 | CCOc1ccc(NS(=O)(=O)c2ccc(OC)c(NC(=O)c3ccc4c(c3)OCCO4)c2)cc1 | -2.7
65 | O=C(COC(=O)c1ccccn1)NCc1ccccc1Cl | 9.9
66 | CC(C)(C)c1ccc(Cc2n[nH]c(=S)[nH]c2=O)cc1 | 3.29
67 | Cc1ccc(NC(=O)CN2C(=O)NC3(CCCCCCC3)C2=O)cc1C | -1.5
68 | Cc1nc(C)c(-c2ccc(SCC(=O)Nc3ccccc3)nn2)s1 | 6.28
69 | CCC1Oc2ccc(C)cc2N(CC(=O)N2CCCC2)C1=O (centres unmarked) | 23.2

Row | SMILES | hERG current change (%, negative = inhibition) at 10uM [%]
70 | COc1ccc(NC(=O)c2cccc(Cn3cc(Br)cn3)c2)cn1 | -5.7
71 | Nc1ncnc2nc(SCc3ccc(Cl)cc3Cl)[nH]c12 | 8.62
72 | COc1ccc(-n2nc(C(=O)NCC(=O)NCC3CCCO3)c3ccccc3c2=O)cc1Cl (centres unmarked) | -4.71
73 | Cc1cc(S(=O)(=O)NCC(C)C)ccc1OCC(=O)N1CCOCC1 | -2.34
74 | COC(=O)c1ccc(C2NC(C(=O)O)CS2)cc1 (centres unmarked) | 11.3
75 | CSCCC(NC(=O)C1CCC(C)CC1)C(=O)O (centres unmarked) | 16.6
76 | COc1ccc(OC)c(CCNC(=O)CS(=O)(=O)Cc2nc(-c3ccccc3Cl)oc2C)c1 | -14.1
77 | COc1ccc(NS(=O)(=O)c2ccc(NC(C)=O)cc2)cc1OC | 7.52
78 | CCC1CCCCN1CCCNC(=O)Cn1nc(-c2ccccc2)ccc1=O (centres unmarked) | 2.27
79 | COc1cc(NC(=O)COC(=O)c2cnc(C)cn2)c(C)cc1[N+](=O)[O-] | 16.9
80 | COC(=O)c1ccc(NC(=O)C(=O)NCC2CCCO2)cc1 (centres unmarked) | 26.2
81 | COc1ccc(C)cc1NS(=O)(=O)c1ccc2c(c1)N(C(C)=O)CCO2 | -13.7
82 | COc1ccc(C(=O)NC(=S)Nc2nc(C)cc(C)n2)cc1Br | 23.1
83 | CC(Sc1ccccc1)C(=O)N(CCC#N)Cc1cccnc1 (centres unmarked) | 6.64
84 | Cc1noc(C)c1CSc1nc2ccccc2n1C | 0.614
85 | COc1ccc(N2C(=O)CC(Sc3nc(C)cc(C)c3C#N)C2=O)cc1 (centres unmarked) | 8.43
86 | COc1ccc(OCCOC(=O)c2ccc(F)c(S(=O)(=O)N3CCOCC3)c2)cc1 | -13.8
87 | O=C(/C=C\NCC(=O)c1ccccc1)c1ccccc1 | -22.2
88 | CCN(C(=O)COC(=O)c1cccc(-n2cnnn2)c1)C1CCCCC1 | 4.55
89 | COc1ccc(Cl)cc1NC(=O)CN1C(=O)NC2(CCCC2)C1=O | 11.1
